We go through 85 compounds from the supplement of paper PMC9446081.

Molecules are shown by their SMILES. Among all 39,000 compounds or so, about 220 (0.56%) showed activity. The list shows a part of the results.
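Also: static incubation at 37 °C against the wild-type strain, values averaged over two biological replicates.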

The experiment deals with Escherichia coli K-12 BW25113. Briefly: relative growth (OD600 normalised to plate interquartile mean) (fraction); higher = less growth inhibition, active = 0.2 or less. The following applies: 50 µM; LB; incubation time: overnight (16-24 h).
`CN1CCN(c2nc(=O)c3c([nH]2)CCCC3)CC1`: the relative growth was inactive: 1. Regarding `N[C@@H](Cn1oc(=O)[nH]c1=O)C(=O)O`, the relative growth was inactive: 1.03. For `CC(=O)OC1CC2(C)C(c3ccoc3)CC3OC32C2(C)C(=O)C(O)=C3C(C)(C)C(=O)C=CC3(C)C12` (stereo not given), the relative growth is inactive: 1.06. On to `O=C(c1ccco1)N1[C@@H]2CC[C@H]1CNC2`, for which the relative growth is inactive: 1.01. Turning to `Cc1cc(C(=O)N2CC[C@H]3[C@@H]2CCN3C)no1`, the relative growth is inactive: 1.02. As for `N[C@H]1CCCN(Cc2cccnc2)C1`, the relative growth is inactive: 1.03.

`CCCCCC1C(=O)OC(C)C(NC(=O)c2cccc(NC=O)c2O)C(=O)OC(C)C1OC(=O)CC(C)C` (stereo not given) [ANTIMYCIN A (A1 shown)]: the relative growth is inactive: 0.849. With `O=C1CC[C@]2(CCCN(Cc3cnc[nH]3)C2)N1`, the relative growth is inactive: 1.02. With `C#CC1(O)C=CC2C3CCC4=CC(=O)CCC4C3CCC21CC` (stereo not given), the relative growth is inactive: 1.04. In the case of `CN[C@@H]1[C@@H](O)[C@@H](O[C@@H]2[C@H](O)[C@@H](O[C@H]3O[C@H]([C@@H](C)O)[C@@H](O)[C@H](O)[C@H]3N)[C@H](N)C[C@@H]2N)OC[C@]1(C)O`, the relative growth was inactive: 0.484. As for `c1ccc2c(c1)Nc1ccccc1S2`, the relative growth was inactive: 0.886. In the case of `CCN1CCN(c2nc(=O)cc(C)[nH]2)CC1`, the relative growth is inactive: 1.01. Turning to `[N-]=[N+]=NCc1ccccc1C[C@@]1(C(=O)NCCN2CCOCC2)N=C(c2ccc(OCCCO)cc2)O[C@@H]1c1ccccc1N=[N+]=[N-]`, the relative growth is inactive: 0.969. Turning to `O=C1CCN(C(=O)C2CCC2)CC1`, the relative growth is inactive: 0.985. Take `C=CCOC(Cn1ccnc1)c1ccc(Cl)cc1Cl.O=S(=O)(O)O` (stereo not given): the relative growth is inactive: 0.797.

`NC1(Cc2ccc(Cl)cc2)CC1`: the relative growth is inactive: 0.969. To `OCCN1CC2(CCN(c3nccs3)C2)C1` belongs inactive: 0.999.

With `N#Cc1nn(-c2c(Cl)cc(C(F)(F)F)cc2Cl)c(N)c1S(=O)C(F)(F)F` (stereo not given), the relative growth was inactive: 0.875. To `CC12CCC3C(CCC45OC4C(O)=C(C#N)CC35C)C1CCC2O` (stereo not given) belongs inactive: 0.865. As for `CC(=O)OCC1=C(C(=O)O)N2C(=O)[C@@H](N)[C@H]2SC1`, the relative growth was inactive: 1.01. To `C[C@@H]1CN([C@@H](C)CO)C(=O)CCCn2cc(nn2)CO[C@H]1CN(C)C(=O)Oc1cccc2ccccc12` belongs inactive: 1. On to `C=C(C)[C@@H]1[C@H]2OC(=O)[C@@H]1[C@]1(O)C[C@H]3O[C@]34C(=O)O[C@H]2[C@]14C`, for which the relative growth is inactive: 0.975.

`CC(=O)O[C@H]1C(=O)[C@]2(C)[C@@H](O)C[C@H]3OC[C@@]3(OC(C)=O)[C@@H]2[C@H](OC(=O)c2ccccc2)[C@]2(O)C[C@H](O)C(C)=C1C2(C)C`: the relative growth was inactive: 0.994. Consider `C[C@]12C(=O)OC(=O)[C@]1(C)[C@H]1CC[C@H]2O1`, for which the relative growth is inactive: 0.97. Consider `CC1OC(OC2CCC3(C=O)C4CCC5(C)C(C6=CC(=O)OC6)CCC5(O)C4CCC3(O)C2)C(O)C(O)C1O` (stereo not given), for which the relative growth was inactive: 1.15. On to `C[C@H]1CN([C@@H](C)CO)C(=O)CCCn2cc(nn2)CO[C@H]1CN(C)C(=O)Oc1cccc2ccccc12`, for which the relative growth was inactive: 1.01. Consider `S=C1NCCN1`, for which the relative growth was inactive: 0.972. On to `CC(=O)[C@]12[C@@H]3CC=C[C@H]1N2CC3` (stereo not given in full), for which the relative growth is inactive: 0.988. `COc1cc2c(cc1O)CCNC2C` (stereo not given): the relative growth is inactive: 1.15. As to `O=C(NCc1ccccc1)[C@H]1C[C@H]2CNC[C@H]1O2`, the relative growth is inactive: 1.03. In the case of `C[C@@H]1CC[C@@]2(OC1)O[C@H]1C[C@H]3[C@@H]4CC=C5C[C@@H](O[C@@H]6O[C@H](CO)[C@@H](O[C@@H]7O[C@@H](C)[C@H](O)[C@@H](O)[C@H]7O)[C@H](O)[C@H]6O[C@@H]6O[C@@H](C)[C@H](O)[C@@H](O)[C@H]6O)CC[C@]5(C)[C@H]4CC[C@]3(C)[C@H]1[C@@H]2C`, the relative growth was inactive: 0.913. Regarding `c1nc(N2CCN3CCC[C@H]3C2)c2[nH]cnc2n1`, the relative growth is inactive: 0.977. With `CCOC1OC2OC3(C)CCC4C(C)CCC(C1C)C24OO3` (stereo not given), the relative growth was inactive: 1.09.

With `CNC(=O)CSP(=S)(OC)OC`, the relative growth is inactive: 1.07.

As for `CNC(=O)CN1CCOCC12CCN(c1cc(OC)ncn1)CC2`, the relative growth is inactive: 1.02. As for `CNC(=O)[C@@H]1COC[C@@H]2CN(CC(C)C)C[C@@H]21`, the relative growth was inactive: 1.

With `COCCCNC(=O)[C@]1(Cc2ccccc2N=[N+]=[N-])N=C(c2ccc(OCCCO)cc2)O[C@@H]1c1ccccc1N=[N+]=[N-]`, the relative growth was inactive: 0.96. For `CC(C)(C)[C@]1(O)C[C@@H]2OC(=O)C[C@]23C(=O)O[C@@H]2OC(=O)[C@H](O)[C@]231`, the relative growth is inactive: 0.998. On to `[N-]=[N+]=NCC(=O)Nc1ccon1`, for which the relative growth is inactive: 0.986. In the case of `CC(C)N(CCC(C(N)=O)(c1ccccc1)c1ccccn1)C(C)C.O=P(O)(O)O` (stereo not given), the relative growth is inactive: 0.992.

`Cc1ccc(C2(CN)CCCCC2)cc1`: the relative growth was inactive: 0.924. The figure for `COc1ccc(C2(CN)CCOCC2)cc1` is inactive: 1.02; for `Cc1o[nH]c(=O)c1C[C@H](N)C(=O)O` it is inactive: 0.995. To `O=C([C@H]1CCCO1)N1CCCN2CCC[C@H]2C1` belongs inactive: 0.999; to `C[C@]12CC[C@H](Cl)C[C@@H]1CC[C@@H]1[C@@H]2CC[C@]2(C)C(=O)CC[C@@H]12`, inactive: 1; to `CC(C)C[C@@H]1C(=O)N2CCC[C@@H]2[C@]2(O)O[C@@](NC(=O)[C@@H]3C=C4c5cccc6[nH]c(Br)c(c56)C[C@@H]4N(C)C3)(C(C)C)C(=O)N12`, inactive: 1.02. The figure for `NCCNC[C@@H](N)CCCNC(N)=N[N+](=O)[O-].O=CC(F)(F)F` is inactive: 1.02; for `Cc1nnc([C@H]2CCCNC2)o1` it is inactive: 0.969. For `C[C@@H]1CN([C@@H](C)CO)C(=O)CCCn2nncc2CO[C@H]1CN(C)C(=O)Oc1cccc2ccccc12`, the relative growth was inactive: 1. As for `CCC1CN2CCc3cc(OC)c(OC)cc3C2CC1CC1NCCc2cc(OC)c(OC)cc21.Cl.Cl` (stereo not given), the relative growth was inactive: 1.19. As to `CCNC(=O)[C@H]1O[C@@H](n2cnc3c(N)ncnc32)[C@H](O)[C@@H]1O`, the relative growth is inactive: 0.996. For the compound `NCCc1c[nH]c2ccc(C(N)=O)cc12`, the relative growth is inactive: 0.999. With `O=C(O)C=CCO`, the relative growth is inactive: 0.994. Regarding `O=C(O)C(Cl)Cl`, the relative growth is inactive: 1.01. On to `C1CC2(CCN1)OCCO2`, for which the relative growth is inactive: 1.02. The figure for `C=CCc1ccc2c(c1)OCO2` is inactive: 1.08; for `COP(=O)(OC)C(O)C(Cl)(Cl)Cl` (stereo not given) it is inactive: 0.874; for `O=C1NC(=S)NC(=O)C1c1ccccc1` it is inactive: 0.959. For the compound `O=[N+]([O-])c1ccc2c3c(cccc13)CC2`, the relative growth was inactive: 0.979. Turning to `N[C@@]1(C(=O)O)CC[C@H](C(=O)O)C1`, the relative growth was inactive: 0.999. With `COc1ccc(C[C@@H](N)c2ccc(C)cn2)cc1OC`, the relative growth was inactive: 0.941. As to `NC(=N[N+](=O)[O-])NCCC[C@H](N)C(=O)O`, the relative growth is inactive: 0.98. As for `CP(=O)(O)C1=CCNCC1`, the relative growth is inactive: 1.01.

Take `O=C1NC(=O)C(C2(O)C(=O)c3ccccc3C2=O)C(=O)N1`: the relative growth was inactive: 0.908. Turning to `Cc1ccc(OC(=O)N(C)C[C@@H]2OCc3ccccc3-c3c(n(C)c4ccccc34)C(=O)N([C@@H](C)CO)C[C@H]2C)cc1`, the relative growth was inactive: 1.04. For the compound `N#CC(c1ccccc1)c1ccccc1`, the relative growth is inactive: 0.939. Turning to `O=c1n(Cl)c(=O)n(Cl)c(=O)n1Cl`, the relative growth is inactive: 0.843. With `Cc1ccc2cc3c(ccc4ccccc43)c3c2c1CC3`, the relative growth was inactive: 1.02. As for `O=C(NC(=O)c1c(F)cccc1F)Nc1cc(Cl)c(OC(F)(F)[C@@H](F)C(F)(F)F)cc1Cl`, the relative growth was inactive: 1.01. Regarding `ClC1C(Cl)C(Cl)C(Cl)C(Cl)C1Cl` (stereo not given), the relative growth was inactive: 1.03.

With `Cc1cccc(C)c1NC(=O)CN1CCCC1=O`, the relative growth was inactive: 1.02. The figure for `CCC1(c2ccccc2)C(=O)NC(=O)NC1=O` is inactive: 1.03. The figure for `CC[C@@H](C)C(=O)O[C@H]1[C@H](O)[C@H]2[C@@H](CN3C[C@@H](C)CC[C@@H]3[C@@]2(C)O)[C@H]2C[C@]34O[C@]5(O)[C@@H](OC(=O)[C@@](C)(O)[C@@H](C)O)CC[C@@]3(C)[C@@H]5[C@@H](OC(C)=O)[C@@H](OC(C)=O)[C@@H]4[C@@]21O` is inactive: 1.02; for `C[C@H](CO)N1C[C@H](C)[C@@H](CN(C)C(=O)Oc2cccc3ccccc23)OCc2cnnn2CCCC1=O` it is inactive: 1.01; for `COC(=O)[C@]1(Cc2ccccc2CN=[N+]=[N-])N=C(c2ccc(OCCCO)cc2)O[C@@H]1c1ccccc1N=[N+]=[N-]` it is inactive: 1.04. The figure for `O=c1[nH]c(=O)n(Cl)c(=O)n1Cl` is inactive: 0.971.

For `N#C[C@H](O[C@@H]1O[C@H](CO)[C@@H](O)[C@H](O)[C@H]1O)c1ccc(O)cc1`, the relative growth is inactive: 1.01. As for `CCN(C)C(=O)Oc1cccc(C(C)N(C)C)c1.O=C(O)C(O)C(O)C(=O)O` (stereo not given), the relative growth was inactive: 0.922.

With `N[C@@H](CO)Cc1ccccc1`, the relative growth was inactive: 0.996.

Consider `COP(=O)(OC)OC=C(Cl)Cl`, for which the relative growth is inactive: 1.01. For the compound `COc1cccc(C2(N)CCCC2)c1`, the relative growth is inactive: 1.02. For `S=C=NCc1ccccc1`, the relative growth was inactive: 0.603. For the compound `CC(=O)O[C@H]1C[C@H](O[C@H]2[C@@H](O)C[C@H](O[C@H]3[C@@H](O)C[C@H](O[C@H]4CC[C@@]5(C)[C@@H](CC[C@H]6[C@@H]5C[C@@H](O)[C@]5(C)[C@@H](C7=CC(=O)OC7)CC[C@]65O)C4)O[C@@H]3C)O[C@@H]2C)O[C@H](C)[C@H]1O[C@@H]1O[C@H](CO)[C@@H](O)[C@H](O)[C@H]1O`, the relative growth was inactive: 0.986. For `O=c1cccc2n1C[C@@H]1C[C@H]2CN(C[C@H](O)/C=N/n2cnnc2)C1`, the relative growth was inactive: 0.993. Consider `C[C@]12CC[C@@H]3c4ccc(OC(=O)N(CCCl)CCCl)cc4CC[C@H]3[C@@H]1CC[C@@H]2OP(=O)(O)O`, for which the relative growth is inactive: 1.02.
